Measurements reported in PubChem BioAssay AID686979 (National Center for Advancing Translational Sciences (NCATS), 2013).
Among all 420,000 compounds or so, about 50,000 (12%) were called active. The shares of active, inactive and inconclusive entries below differ from those in the screen. Calls follow the shape of the dose curve; as a rule, active = well fitted inhibition curve with a large enough effect; inconclusive = small, poorly fitted or top-dose-only effect; inactive = flat fitted curve, though single readings scatter. No potency is given beside an inconclusive call; the fits are too rough.

assay: qHTS for Inhibitors of human tyrosyl-DNA phosphodiesterase 1 (TDP1): qHTS in cells in presence of CPT; conditions: chicken DT40 Tdp1-/-;hTDP1 cells + 20 nM CPT, ATP luminescence, 48 h; activity change, negative = growth inhibition: at 46.2 µM (top of the series) unless noted; also: nearly all actives have a fitted effect of over 55% in size
Procedure, shortened: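 Chicken DT40 Tdp1-/- cells complemented with human TDP1, 400 cells/well, exposed to compounds plus 20 nM camptothecin for at least 48 h at 37 C; viability read as ATP content by CellTiter-Glo luminescence.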
% is scaled to controls: 0 for no effect and ±100 for the full control effect; potency is read from the fitted curve at half-maximal effect; tags tell the direction and shape of the fitted curve.

Compound | Potency | activity change, negative = growth inhibition
O=C(Nc1cccc(Cl)c1)c1ccc2nc(CCc3ccccc3)oc2c1 | inconclusive [inhibitor, single point] | 
Cc1onc(-c2ccccc2)c1C(=O)N1CCN(S(=O)(=O)c2ccc(Cl)cc2)CC1 |  | inactive: -21.9%
CCCn1c2ccccc2c2cnn(CC(=O)NCc3ccccc3Cl)c(=O)c21 | inconclusive [inhibitor, single point] | 
O=C1c2cc([N+](=O)[O-])ccc2-c2cc(Cl)c(NC(=O)C(F)(F)F)cc21 | inconclusive [inhibitor, single point] | 
CCC(=O)N1CCc2cc(Br)cc(S(=O)(=O)N3CCC(C(=O)Nc4ccccc4CC)CC3)c21 | inconclusive [inhibitor, partial curve] | 
Cc1nc(-c2ccccc2)sc1-c1ccc(SCC(=O)Nc2cccc(C(F)(F)F)c2)nn1 | inconclusive [inhibitor, partial curve, poor fit] | 
Cc1cccc(C(=O)NC(C)C(c2cccs2)N2CCOCC2)c1 (stereo not given) | inconclusive [inhibitor, single point] | 
CNC(=O)NC(=O)C(C)OC(=O)c1ccc(Cl)c(S(=O)(=O)Nc2ccc(F)cc2)c1 (stereo not given) |  | inactive: -1.66%
CS(=O)(=O)Nc1cccc(-c2ccc3ncnc(NCc4cccnc4)c3c2)c1 | inconclusive [inhibitor, single point] | 
Cc1ccccc1-c1cc(NCc2ccccc2)ncn1 | active: 14.6 µM | 
Cc1ccccc1N1CCN(C2CCCN(C(=O)c3noc4c3CCCC4)C2)CC1 (stereo not given) | active: 9.2 µM | 
CC(NCc1nc2ccccc2n1C)C12CC3CC(CC(C3)C1)C2 (stereo not given) | inconclusive [inhibitor, single point] | 
Cc1ccc(S(=O)(=O)N2CCN(C(=O)C3CCN(C(=O)c4ccccc4C)CC3)CC2)cc1C | inconclusive [inhibitor, single point] | 
CCc1cc(C(=O)c2ccc(OC)cc2)c(NC(=O)CN2CCCCC2)s1 | inconclusive [inhibitor, single point] | 
CN(C)/C=C(\C#N)C(N)=C(C#N)C#N |  | inactive: 0.696%
COCCn1c(-c2ccc3ccccc3c2)nc2c1c(=O)[nH]c(=O)n2CC(C)C | inconclusive [inhibitor, single point] | 
O=C(Nc1ccncc1)c1ccc(Br)cc1 | inconclusive [inhibitor, full curve] | 
CSc1ccc(/C=N/N2CCN(Cc3ccc(Cl)cc3)CC2)cc1 | inconclusive [inhibitor, single point] | 
Cc1n[nH]c(C)c1C(=O)CC1(O)C(=O)N(CCc2ccccc2)c2ccc(Cl)cc21 (stereo not given) | inconclusive [inhibitor, single point] | 
Cc1nn(CC(=O)OCC(=O)NC(C)c2ccccc2)c(C)c1[N+](=O)[O-] (stereo not given) |  | inactive: -23.4%
COc1cc(/C=C/C(=O)OC(C)C(=O)NC2CCCCC2C)cc(Cl)c1OC (stereo not given) | inconclusive [inhibitor, single point] | 
CC(C)Oc1ccc(CNC(=O)C2CCN(c3nc4ccccc4nc3C(F)(F)F)CC2)cc1 | active: 4.11 µM | 
O=S(=O)(c1ccc(Cl)cc1)N1CCN(c2ncnc3sccc23)CC1 | active: 6.51 µM | 

Compound | Potency | activity change, negative = growth inhibition
CCN(C(=O)COC(=O)C(C)(C)Oc1ccc(Cl)cc1)c1c(N)n(Cc2ccccc2)c(=O)[nH]c1=O |  | inactive: -14.8%
CCn1cc(Cl)c(C(=O)N2N=C(c3ccc4ccccc4c3)CC2c2ccccc2O)n1 (stereo not given) | inconclusive [inhibitor, single point] | 
COc1cccc2cc(C(C)N(CCCN3CCOCC3)C(=S)Nc3cc(C)cc(C)c3)oc12 (stereo not given) |  | inactive: -15.2%
Cc1ccc(S(=O)(=O)N2CCOCC2)cc1C(=O)NC(=S)N(Cc1ccccc1)C(C)C |  | inactive: 6.11%
CCCC(=O)OCC(=O)Nc1ccc2c(c1)OCO2 |  | inactive: -8.62%
CSc1nc2ccc3nc(NC(=O)c4ccc(C)cc4)sc3c2s1 |  | inactive: 3.67%
CC1(C(=O)O)CCN1C(=O)c1cccc(C(F)(F)F)c1 (stereo not given) |  | inactive: 9.06%
O=c1c2ccccc2nc(-c2ccco2)n1CCc1ccc(O)cc1 | inconclusive [inhibitor, partial curve] | 
O=C(NN1C(=O)/C(=C\c2cccnc2)SC1=S)C(c1ccccc1)c1ccccc1 | inconclusive [inhibitor, single point] | 
CSc1nc(-c2ccccc2)c(-c2ccccc2)[nH]1 |  | inactive: -17.1%
CC(=O)CCc1ccc(Oc2nc(-c3cccnc3)nc3ccccc23)cc1 | inconclusive [inhibitor, single point] | 
Cc1ccc(S(=O)(=O)N2CCCCC2)cc1NC(=O)COC(=O)CN1C(=O)NC2(CC(C)CC(C)(C)C2)C1=O (stereo not given) | inconclusive [inhibitor, single point] | 
CCS(=O)(=O)NC(=O)C1(C)CCN1C(=O)Cc1ccc(Cl)cc1Cl (stereo not given) |  | inactive: 12.5%
Cc1cccc(C(=O)Nc2scc(CC(C)C)c2C(=O)O)c1 | inconclusive [inhibitor, partial curve] | 
COCCCNC(=O)c1cnc2c(-c3ccc(F)cc3)c(C)nn2c1C |  | inactive: -6.56%
O=c1c2ccccc2oc2cc(NCCCN3CCOCC3)ccc12 | inconclusive [inhibitor, single point] | 
CCn1c(SCC(=O)Nc2cc(C)on2)nc2sc3c(c2c1=O)CCCC3 | inconclusive [inhibitor, full curve] | 
Cc1ccc(C)c(N2CCN(C(=O)Cc3ccc(NC4=NC5CS(=O)(=O)CC5S4)cc3)CC2)c1 (stereo not given) | inconclusive [inhibitor, single point] | 
CCOP(=O)(c1ccccc1)C(O)c1ccc(F)cc1 (stereo not given) |  | inactive: 3.61%
Cc1ccc(NC(=O)CN(C)C(=O)COC(=O)/C=C/c2cccs2)cc1 |  | inactive: 14.4%
N#CC(=C=[N-])c1nc2ccccc2nc1-[n+]1cccc(NC(=O)c2cccs2)c1 | active: 5.8 µM | 
O=C(c1ccc(Br)cc1)N1CCN(CCc2ccncc2)CC1 | inconclusive [inhibitor, single point] | 
